# Measurements taken from the supplement of paper PMC8728848.
# Some of the results follow.
# B1: MGL6A (Homo sapiens) (protein)
# chain: MTRTYENFQYLENKVKVQGFKNGPLPLQSLLQRLCSGPCHLLLSLGLGLLLLVIICVVGFQNSKFQRDLVTLRTDFSNFTSNTVAEIQALTSQGSSLEETIASLKAEVEGFKQERQAVHSEMLLRVQQLVQDLKKLTCQVATLNNNGEEASTEGTCCPVNWVEHQDSCYWFSHSGMSWAEAEKYCQLKNAHLVVINSREEQNFVQKYLGSAYTWMGLSDPEGAWKWVDGTDYATGFQNWKPGQPDDWQGHGLGGGEDCAHFHPDGRWNDDVCQRPYHWVCEAGLGQTSQESH
# What was measured:
# Assay in all cases: glycan array binding signal (z-score within array); higher = stronger binding
# Settings in all cases: glycan notation: IUPAC condensed, linker removed
# [1] = molecular target: Fuc(a1-2)[Gal(a1-3)]Gal(b1-4)GlcNAc(b1-3)[Fuc(a1-2)[Gal(a1-3)]Gal(b1-4)GlcNAc(b1-6)]GalNAc
# Method in brief: (§1)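 Glycan array data were curated from 3228 arrays in the Consortium for Functional Glycomics database and kept only where the protein sequence was available. Glycan names were converted to IUPAC-condensed notation, and columns mapping to the same glycan were averaged. The binding signal is a within-array Z-score, averaged across arrays of the same protein sequence at different concentrations or buffers and across linkers. Negative Z-scores can be read as non-binding.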
# [2] = molecular target: Fuc(a1-2)[Gal(a1-3)]Gal(b1-4)GlcNAc(b1-6)GalNAc
# Method in brief: as §1
# [3] = molecular target: Fuc(a1-2)[Gal(a1-3)]Gal(b1-4)[Fuc(a1-3)]Glc
# Method in brief: as §1
# [4] = molecular target: Fuc(a1-2)[Gal(a1-3)]Gal(b1-4)[Fuc(a1-3)]GlcNAc
# Method in brief: as §1
# [5] = molecular target: Fuc(a1-2)[Gal(a1-3)]Gal(b1-4)[Fuc(a1-3)]GlcNAc(b1-3)GalNAc
# Method in brief: as §1
# [6] = molecular target: Fuc(a1-2)[Gal(a1-4)]Gal(b1-4)GlcNAc
# Method in brief: as §1
# [7] = molecular target: Fuc(a1-2)[GalNAc(a1-3)]Gal
# Method in brief: as §1
# [8] = molecular target: Fuc(a1-2)[GalNAc(a1-3)]Gal(b1-3)GalNAc(a1-3)[Fuc(a1-2)]Gal(b1-4)GlcNAc
# Method in brief: as §1
# [9] = molecular target: Fuc(a1-2)[GalNAc(a1-3)]Gal(b1-3)GalNAc(b1-3)Gal(a1-4)Gal(b1-4)Glc
# Method in brief: as §1
# [10] = molecular target: Fuc(a1-2)[GalNAc(a1-3)]Gal(b1-3)GlcNAc
# Method in brief: as §1
# [11] = molecular target: Fuc(a1-2)[GalNAc(a1-3)]Gal(b1-3)GlcNAc(b1-2)Man(a1-3)[Fuc(a1-2)[GalNAc(a1-3)]Gal(b1-3)GlcNAc(b1-2)Man(a1-6)]Man(b1-4)GlcNAc(b1-4)GlcNAc
# Method in brief: as §1
# [12] = molecular target: Fuc(a1-2)[GalNAc(a1-3)]Gal(b1-3)GlcNAc(b1-2)Man(a1-3)[Fuc(a1-2)[GalNAc(a1-3)]Gal(b1-3)GlcNAc(b1-2)Man(a1-6)]Man(b1-4)GlcNAc(b1-4)[Fuc(a1-6)]GlcNAc
# Method in brief: as §1
# [13] = molecular target: Fuc(a1-2)[GalNAc(a1-3)]Gal(b1-3)GlcNAc(b1-3)GalNAc
# Method in brief: as §1
# [14] = molecular target: Fuc(a1-2)[GalNAc(a1-3)]Gal(b1-3)GlcNAc(b1-6)GalNAc
# Method in brief: as §1
# [15] = molecular target: Fuc(a1-2)[GalNAc(a1-3)]Gal(b1-4)Glc
# Method in brief: as §1
# [16] = molecular target: Fuc(a1-2)[GalNAc(a1-3)]Gal(b1-4)GlcNAc
# Method in brief: as §1
# [17] = molecular target: Fuc(a1-2)[GalNAc(a1-3)]Gal(b1-4)GlcNAc(b1-2)Man
# Method in brief: as §1
# [18] = molecular target: Fuc(a1-2)[GalNAc(a1-3)]Gal(b1-4)GlcNAc(b1-2)Man(a1-3)[Fuc(a1-2)[GalNAc(a1-3)]Gal(b1-4)GlcNAc(b1-2)Man(a1-6)]Man(b1-4)GlcNAc(b1-4)GlcNAc
# Method in brief: as §1
# [19] = molecular target: Fuc(a1-2)[GalNAc(a1-3)]Gal(b1-4)GlcNAc(b1-2)Man(a1-3)[Fuc(a1-2)[GalNAc(a1-3)]Gal(b1-4)GlcNAc(b1-2)Man(a1-6)]Man(b1-4)GlcNAc(b1-4)[Fuc(a1-6)]GlcNAc
# Method in brief: as §1
# [20] = molecular target: Fuc(a1-2)[GalNAc(a1-3)]Gal(b1-4)GlcNAc(b1-2)Man(a1-3)[GalNAc(a1-3)[Fuc(a1-2)]Gal(b1-4)GlcNAc(b1-2)Man(a1-6)]Man(b1-4)GlcNAc(b1-4)GlcNAc
# Method in brief: as §1
# [21] = molecular target: Fuc(a1-2)[GalNAc(a1-3)]Gal(b1-4)GlcNAc(b1-3)Gal(b1-4)GlcNAc
# Method in brief: as §1
# [22] = molecular target: Fuc(a1-2)[GalNAc(a1-3)]Gal(b1-4)GlcNAc(b1-3)Gal(b1-4)GlcNAc(b1-3)Gal(b1-4)GlcNAc
# Method in brief: as §1
# [23] = molecular target: Fuc(a1-2)[GalNAc(a1-3)]Gal(b1-4)GlcNAc(b1-3)GalNAc
# Method in brief: as §1
# [24] = molecular target: Fuc(a1-2)[GalNAc(a1-3)]Gal(b1-4)GlcNAc(b1-3)[Fuc(a1-2)[GalNAc(a1-3)]Gal(b1-4)GlcNAc(b1-6)]GalNAc
# Method in brief: as §1
# [25] = molecular target: Fuc(a1-2)[GalNAc(a1-3)]Gal(b1-4)GlcNAc(b1-6)GalNAc
# Method in brief: as §1
# [26] = molecular target: Fuc(a1-2)[GalNAc(a1-3)]Gal(b1-4)[Fuc(a1-3)]GlcNAc
# Method in brief: as §1
# [27] = molecular target: Fuc(a1-2)[GalNAc(a1-3)]Gal(b1-4)[Fuc(a1-3)]GlcNAc(b1-3)GalNAc
# Method in brief: as §1
# [28] = molecular target: Fuc(a1-2)[GalNAc(a1-4)]Gal(b1-4)GlcNAc
# Method in brief: as §1
# [29] = molecular target: Fuc(a1-2)[GalNAc(b1-3)]Gal
# Method in brief: as §1
# Fuc(a1-3)GlcNAc = molecular target: Fuc(a1-3)GlcNAc
# Method in brief: as §1
# [30] = molecular target: Fuc(a1-3)[Gal(b1-4)]Glc6S
# Method in brief: as §1
# [31] = molecular target: Fuc(a1-3)[Gal(b1-4)]GlcNAc
# Method in brief: as §1
# [32] = molecular target: Fuc(a1-3)[Gal(b1-4)]GlcNAc(b1-2)Man
# Method in brief: as §1
# [33] = molecular target: Fuc(a1-3)[Gal(b1-4)]GlcNAc(b1-2)Man(a1-3)[Fuc(a1-3)[Gal(b1-4)]GlcNAc(b1-2)Man(a1-6)]Man(b1-4)GlcNAc(b1-4)GlcNAc
# Method in brief: as §1
# [34] = molecular target: Fuc(a1-3)[Gal(b1-4)]GlcNAc(b1-2)Man(a1-3)[Fuc(a1-3)[Gal(b1-4)]GlcNAc(b1-2)Man(a1-6)]Man(b1-4)GlcNAc(b1-4)[Fuc(a1-6)]GlcNAc
# Method in brief: as §1
# [35] = molecular target: Fuc(a1-3)[Gal(b1-4)]GlcNAc(b1-2)Man(a1-6)[Gal(b1-4)GlcNAc(b1-2)Man(a1-3)]Man(b1-4)GlcNAc(b1-4)GlcNAc
# Method in brief: as §1
# [36] = molecular target: Fuc(a1-3)[Gal(b1-4)]GlcNAc(b1-3)Gal(b1-3)[Fuc(a1-4)]GlcNAc
# Method in brief: as §1
# [37] = molecular target: Fuc(a1-3)[Gal(b1-4)]GlcNAc(b1-3)Gal(b1-4)[Fuc(a1-3)]GlcNAc
# Method in brief: as §1
binder,measurement,setting,value
B1,glycan array binding signal (z-score),[1],-0.254
same,glycan array binding signal (z-score),[2],-0.27
same,glycan array binding signal (z-score),[3],-0.261
same,glycan array binding signal (z-score),[4],-0.269
same,glycan array binding signal (z-score),[5],-0.261
same,glycan array binding signal (z-score),[6],-0.201
same,glycan array binding signal (z-score),[7],0.727
same,glycan array binding signal (z-score),[8],0.966
same,glycan array binding signal (z-score),[9],-0.19
same,glycan array binding signal (z-score),[10],-0.075
same,glycan array binding signal (z-score),[11],-0.173
same,glycan array binding signal (z-score),[12],0.061
same,glycan array binding signal (z-score),[13],-0.234
same,glycan array binding signal (z-score),[14],3.63
same,glycan array binding signal (z-score),[15],0.534
same,glycan array binding signal (z-score),[16],0.463
same,glycan array binding signal (z-score),[17],-0.017
same,glycan array binding signal (z-score),[18],1.29
same,glycan array binding signal (z-score),[19],-0.299
same,glycan array binding signal (z-score),[20],-0.284
same,glycan array binding signal (z-score),[21],-0.074
same,glycan array binding signal (z-score),[22],-0.038
same,glycan array binding signal (z-score),[23],-0.234
same,glycan array binding signal (z-score),[24],-0.081
same,glycan array binding signal (z-score),[25],3.79
same,glycan array binding signal (z-score),[26],-0.22
same,glycan array binding signal (z-score),[27],-0.232
same,glycan array binding signal (z-score),[28],4.68
same,glycan array binding signal (z-score),[29],4.73
same,glycan array binding signal (z-score),Fuc(a1-3)GlcNAc,-0.244
same,glycan array binding signal (z-score),[30],-0.234
same,glycan array binding signal (z-score),[31],-0.273
same,glycan array binding signal (z-score),[32],-0.284
same,glycan array binding signal (z-score),[33],-0.36
same,glycan array binding signal (z-score),[34],-0.26
same,glycan array binding signal (z-score),[35],1.06
same,glycan array binding signal (z-score),[36],-0.288
same,glycan array binding signal (z-score),[37],-0.249
